Test in all cases: cell-based or functional assay
The target in test [1] is hemagglutinin (HA) of influenza virus B/Florida/04/06 (Yamagata) (influenza B virus).
The target of test [2] is hemagglutinin (HA) of influenza virus H1N1 A/New Caledonia/20/99 (influenza A virus).
The target of test [3] is hemagglutinin (HA) of influenza virus H3N2 A/Brisbane/10/07 (influenza A virus).
In test [4] the target is hemagglutinin (HA) of influenza virus H3N2 A/Wisconsin/67/05 (influenza A virus).
Test [5] deals with hemagglutinin (HA) of influenza A/Anhui/1/13 (H7N9) (influenza A virus).
The target of test [6] is hemagglutinin (HA) of influenza A/California/07/09 (H1N1) (influenza A virus).
Test [7] deals with hemagglutinin (HA) of influenza A/New Caledonia/20/99 (H1N1) (influenza A virus).
Test [8] addresses hemagglutinin (HA) of influenza A/Shanghai/2/13 (H7N9) (influenza A virus).
Test [9] deals with hemagglutinin (HA) of influenza A/Vietnam/1194/04 (H5N1) (influenza A virus).
Test [10] concerns the target hemagglutinin (HA) of influenza A/WF/HK/MPA892/06 (H4) (influenza A virus).
The target of test [11] is hemagglutinin (HA) of influenza A/Wisconsin/67/05 (H3N2) (influenza A virus).
Test [12] has as its target hemagglutinin (HA) of influenza B/Florida/04/06 (Yamagata) (influenza B virus).
Test [13] deals with hemagglutinin (HA) of influenza B/Harbin/7/94 (Yamagata) (influenza B virus).
Test [14] deals with hemagglutinin (HA) of influenza B/Malaysia/2506/04 (Victoria) (influenza B virus).

B1: MD2620 (Fc fusion)
chain: EVQLVESGGGLVQPGGSLRLSCAVSISIFDIYAMDWYRQAPGKQRDLVATSFRDGSTNYADSVKGRFTISRDNAKNTLYLQMNSLKPEDTAVYLCHVSLYRDPLGVAGGMGVYWGKGALVTVSSGGGGSGGGGSEVQLVESGGGLVQPGGSLRLSCAATGFTLENKAIGWFRQTPGSEREGVLCISKSGSWTYYTDSMRGRFTISRDNAENTVYLQMDSLKPEDTAVYYCATTTAGGGLCWDGTTFSRLASSWGQGTQVTVSSGGGGSGGGGSEVQLVESGGGLVQAGGSLKLSCAASGRTYAMGWFRQAPGKEREFVAHINALGTRTYYSDSVKGRFTISRDNAKNTEYLEMNNLKPEDTAVYYCTAQGQWRAAPVAVAAEYEFWGQGTQVTVSSAAA[gap - human IgG1 Fc]
Turning to B1, the average neutralization titer in test [1] worked out at 261 nM; in test [2], 15.5 nM; in [3] it was 23.1 nM; in test [4] it was 30 nM.

B2: MD2612 (Fc fusion)
chain: EVQLVESGGGLVQPGGSLRLSCAATGFTLENKAIGWFRQTPGSEREGVLCISKSGSWTYYTDSMRGRFTISRDNAENTVYLQMDSLKPEDTAVYYCATTTAGGGLCWDGTTFSRLASSWGQGTQVTVSSGGGGSGGGGSEVQLVESGGGLVQPGGSLRLSCAVSISIFDIYAMDWYRQAPGKQRDLVATSFRDGSTNYADSVKGRFTISRDNAKNTLYLQMNSLKPEDTAVYLCHVSLYRDPLGVAGGMGVYWGKGALVTVSSAAA[gap - human IgG1 Fc]
In the case of B2, the average neutralization titer is 330 nM in test [1], 49 nM in [2], 277 nM in test [3] and over 1000 nM in test [4].

B3: MD2619 (Fc fusion)
chain: EVQLVESGGGLVQPGGSLRLSCAATGFTLENKAIGWFRQTPGSEREGVLCISKSGSWTYYTDSMRGRFTISRDNAENTVYLQMDSLKPEDTAVYYCATTTAGGGLCWDGTTFSRLASSWGQGTQVTVSSGGGGSGGGGSEVQLVESGGGLVQPGGSLRLSCAVSISIFDIYAMDWYRQAPGKQRDLVATSFRDGSTNYADSVKGRFTISRDNAKNTLYLQMNSLKPEDTAVYLCHVSLYRDPLGVAGGMGVYWGKGALVTVSSGGGGSGGGGSEVQLVESGGGLVQAGGSLKLSCAASGRTYAMGWFRQAPGKEREFVAHINALGTRTYYSDSVKGRFTISRDNAKNTEYLEMNNLKPEDTAVYYCTAQGQWRAAPVAVAAEYEFWGQGTQVTVSSAAA[gap - human IgG1 Fc]
Turning to B3, the average neutralization titer worked out at 261 nM in test [1], 26.2 nM in test [2], 32.7 nM in [3] and 45.9 nM in test [4].

B4: MD2621 (Fc fusion)
chain: EVQLVESGGGLVQPGGSLRLSCAVSISIFDIYAMDWYRQAPGKQRDLVATSFRDGSTNYADSVKGRFTISRDNAKNTLYLQMNSLKPEDTAVYLCHVSLYRDPLGVAGGMGVYWGKGALVTVSSGGGGSGGGGSEVQLVESGGGLVQAGGSLKLSCAASGRTYAMGWFRQAPGKEREFVAHINALGTRTYYSDSVKGRFTISRDNAKNTEYLEMNNLKPEDTAVYYCTAQGQWRAAPVAVAAEYEFWGQGTQVTVSSGGGGSGGGGSEVQLVESGGGLVQPGGSLRLSCAATGFTLENKAIGWFRQTPGSEREGVLCISKSGSWTYYTDSMRGRFTISRDNAENTVYLQMDSLKPEDTAVYYCATTTAGGGLCWDGTTFSRLASSWGQGTQVTVSSAAA[gap - human IgG1 Fc]
In the case of B4, the average neutralization titer in [1] turned out to be 739 nM; in test [2], 13.1 nM; in test [3], 9.7 nM; in test [4], 26.6 nM.

B5: MD2614 (Fc fusion)
chain: EVQLVESGGGLVQPGGSLRLSCAVSISIFDIYAMDWYRQAPGKQRDLVATSFRDGSTNYADSVKGRFTISRDNAKNTLYLQMNSLKPEDTAVYLCHVSLYRDPLGVAGGMGVYWGKGALVTVSSGGGGSGGGGSEVQLVESGGGLVQPGGSLKLSCAASGFTFSTSWMYWLRQAPGKGLEWVSVINTDGGTYYADSVKDRFTISRDNAKDTLYLQMSSLKSEDTAVYYCAKDWGGPEPTRGQGTQVTVSSAAA[gap - human IgG1 Fc]
Regarding B5, the average neutralization titer in test [1] was determined as 11.9 nM; in test [2], 21.1 nM; in [3], 142 nM; in [4] it was 285 nM.

B6: MD2613 (Fc fusion)
chain: EVQLVESGGGLVQPGGSLKLSCAASGFTFSTSWMYWLRQAPGKGLEWVSVINTDGGTYYADSVKDRFTISRDNAKDTLYLQMSSLKSEDTAVYYCAKDWGGPEPTRGQGTQVTVSSGGGGSGGGGSEVQLVESGGGLVQPGGSLRLSCAVSISIFDIYAMDWYRQAPGKQRDLVATSFRDGSTNYADSVKGRFTISRDNAKNTLYLQMNSLKPEDTAVYLCHVSLYRDPLGVAGGMGVYWGKGALVTVSSAAA[gap - human IgG1 Fc]
On to B6, for which the average neutralization titer was 0.6 nM in test [1], 42.2 nM in [2], 142 nM in test [3] and over 1000 nM in test [4].

B7: MD2641 (Fc fusion)
chain: EVQLVESGGGLVQPGGSLRLSCAATGFTLENKAIGWFRQTPGSEREGVLCISKSGSWTYYTDSMRGRFTISRDNAENTVYLQMDSLKPEDTAVYYCATTTAGGGLCWDGTTFSRLASSWGQGTQVTVSSGGGGSGGGGSEVQLVESGGGLVQPGGSLKLSCAASGFTFSTSWMYWLRQAPGKGLEWVSVINTDGGTYYADSVKDRFTISRDNAKDTLYLQMSSLKSEDTAVYYCAKDWGGPEPTRGQGTQVTVSS[gap - human IgG1 Fc]GGGGSGGGGSEVQLVESGGGLVQPGGSLRLSCAVSISIFDIYAMDWYRQAPGKQRDLVATSFRDGSTNYADSVKGRFTISRDNAKNTLYLQMNSLKPEDTAVYLCHVSLYRDPLGVAGGMGVYWGKGALVTVSSGGGGSGGGGSEVQLVESGGGLVQAGGSLKLSCAASGRTYAMGWFRQAPGKEREFVAHINALGTRTYYSDSVKGRFTISRDNAKNTEYLEMNNLKPEDTAVYYCTAQGQWRAAPVAVAAEYEFWGQGTQVTVSS
Turning to B7, the Average neutralization titers in test [5] amounted to 26.7 nM; in test [6] it was 2.1 nM; in [7], 9.2 nM; in [8], 17.4 nM; in test [9] it was 13 nM; in test [10], 2.4 nM. Also, the Average neutralization titers in test [11] was found to be 15.5 nM; in [12], 1.7 nM; in test [13] it was 1.2 nM; in test [14], 5.5 nM.

These data come from US20190359693A1.
